In all, about 310,000 compounds went through this assay and about 14,000 (4.5%) showed an effect of 50% or more. The effect is printed as a negative number. The list shows a part of the results.
These compounds were tested against human ether-à-go-go-related gene (hERG) potassium channel (human, UniProt Q12809) (assay: primary screen, population patch clamp on CHO cells stably expressing hERG).
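Note: peak tail current of the secondary pulse compared with the same well before compound.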

human ether-à-go-go-related gene (hERG) potassium channel, sequence (Q12809 whole entry, looked up): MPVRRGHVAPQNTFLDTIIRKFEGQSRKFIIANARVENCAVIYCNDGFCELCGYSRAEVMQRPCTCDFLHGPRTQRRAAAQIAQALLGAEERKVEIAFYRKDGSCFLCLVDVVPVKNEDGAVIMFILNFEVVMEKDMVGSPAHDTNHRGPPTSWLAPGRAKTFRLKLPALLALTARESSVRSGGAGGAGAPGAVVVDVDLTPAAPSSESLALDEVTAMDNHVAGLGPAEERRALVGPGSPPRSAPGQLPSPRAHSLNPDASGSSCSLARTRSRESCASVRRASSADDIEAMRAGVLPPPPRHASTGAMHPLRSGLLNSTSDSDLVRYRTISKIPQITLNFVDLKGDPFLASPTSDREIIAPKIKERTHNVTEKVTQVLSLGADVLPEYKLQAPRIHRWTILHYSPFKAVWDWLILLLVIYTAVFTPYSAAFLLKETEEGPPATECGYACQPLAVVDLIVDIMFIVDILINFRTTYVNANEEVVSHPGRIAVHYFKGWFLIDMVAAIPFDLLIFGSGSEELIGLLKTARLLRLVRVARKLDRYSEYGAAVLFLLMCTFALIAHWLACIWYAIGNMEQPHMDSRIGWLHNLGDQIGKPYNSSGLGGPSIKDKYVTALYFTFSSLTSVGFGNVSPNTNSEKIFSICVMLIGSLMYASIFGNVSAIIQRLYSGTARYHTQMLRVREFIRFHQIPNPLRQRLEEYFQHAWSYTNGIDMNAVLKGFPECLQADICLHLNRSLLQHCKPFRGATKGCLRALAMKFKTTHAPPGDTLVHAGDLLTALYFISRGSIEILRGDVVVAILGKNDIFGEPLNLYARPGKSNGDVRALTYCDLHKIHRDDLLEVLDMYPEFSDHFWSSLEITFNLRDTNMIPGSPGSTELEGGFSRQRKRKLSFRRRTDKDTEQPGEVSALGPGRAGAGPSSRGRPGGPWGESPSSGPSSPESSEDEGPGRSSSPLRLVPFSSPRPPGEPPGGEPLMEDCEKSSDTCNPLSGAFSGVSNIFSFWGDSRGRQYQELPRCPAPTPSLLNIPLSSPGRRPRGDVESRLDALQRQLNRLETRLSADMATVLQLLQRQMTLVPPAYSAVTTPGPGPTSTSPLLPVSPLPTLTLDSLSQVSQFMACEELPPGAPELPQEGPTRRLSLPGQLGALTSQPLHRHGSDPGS

| Compound | hERG current change (%, negative = inhibition) at 10uM [%] |
| --- | --- |
| CCn1c(COc2ccccc2C)nnc1SCC(=O)O | 16.3 |
| CC1(C)CC(=O)c2sc(NS(=O)(=O)c3cc(Cl)ccc3Cl)nc2C1 | 22 |
| C#CCOc1nc2c(c(=O)n(C)c(=O)n2C)n1Cc1ccccc1 | -1.57 |
| O=C(NCc1ccccc1)C1CC(=O)N(C2CCCCC2)C1 (stereo not drawn) | 17.8 |
| Cn1sc(NC(=O)c2ccccc2Cl)nc1=O | -3.63 |
| Cc1cc(Br)c(NC(=O)CN(C)CCOc2ccccc2)c(Br)c1 | -19.5 |
| Cc1cccc(NC(=S)Nc2cccc(C(F)(F)F)c2)n1 | 3.8 |
| ClC1=CCC2CN(CCN3CCCCC3)CC2C1 (stereo not drawn) | 6.22 |
| Cc1cc(C(=O)Nc2nccs2)c2cc(F)ccc2n1 | 7.7 |
| C=C(C)Cn1c(SCC(=O)N/N=C/c2cccc(O)c2)nc2ccccc2c1=O | 9 |
| Cc1cc2nc(-c3ccc(SCC(=O)N4CCOCC4)nc3)[nH]c2cc1C | 4.82 |
| CC(C)CCn1c(=S)[nH]c2ncccc2c1=O | -7.69 |
| COc1ccc(N2CCN(C(=O)c3cccc(NC(=O)c4ccco4)c3)CC2)cc1 | -43.8 |
| COc1ccc2nc(NC(=O)Cn3cnc4c(=O)n(C)c(=O)n(C)c43)sc2c1 | -67.9 |
| O=C(c1cnc2nc3ccccc3n2c1)c1cc(F)ccc1O | 2.44 |
| CCOC(=O)c1c(C)[nH]c(C(=O)CSc2ccccc2)c1C | 3.05 |
| COc1ccc(-c2c(C)c3ccc(OCC(C)=O)cc3oc2=O)cc1 | 12.4 |
| CC(=O)c1cccc(NC(=O)N2C3CCC2CC(NC(=O)Nc2ccccc2)C3)c1 (stereo not drawn) | 8.61 |
| CCN1CCN(S(=O)(=O)c2ccc(Cl)c(C(=O)N(C)CCOc3ccc(Cl)cc3)c2)CC1 | -52.8 |

| Compound | hERG current change (%, negative = inhibition) at 10uM [%] |
| --- | --- |
| CSc1ccc(N/N=C(/C#N)S(=O)(=O)C(C)(C)C)cc1 | 14.9 |
| O=C(COC(=O)c1ccc2ncsc2c1)NCc1cccc(Cl)c1 | -11.2 |
| COc1ccc(Br)cc1/C=N/NC(=O)c1ccco1 | 12.9 |
| CC(=O)c1ccc(N2C(=NC(=O)COc3ccccc3)SC3CS(=O)(=O)CC32)cc1 (stereo not drawn) | -3.89 |
| CN(C)C1=NCCN1CCCC1CCCCC1 | -38.6 |
| COCCn1c(C)cc(C(=O)CN2C(=O)NC3(CCCCCCC3)C2=O)c1C | -59 |
| O=C(NCCSc1ccccc1)c1ccco1 | 0.234 |
| O=C(COC(=O)C1CC2CCCC(C1)C2=O)Nc1ccccc1 (stereo not drawn) | 0.275 |
| Cc1c(C(=O)OCC(C)C)[nH]c2c1C(=O)CC(c1ccco1)C2 (stereo not drawn) | -8.81 |
| COc1ccc(-n2nc3c(c2NC(=O)C(C)Oc2ccccc2)CS(=O)(=O)C3)cc1 (stereo not drawn) | 1.66 |
| CCN(CC)c1ccc(/C=N/NC(=O)CNC(=O)c2cccs2)cc1 | -1.96 |
| Cc1oc2ccc(O)cc2c1C(=O)c1ccc([N+](=O)[O-])cc1 | -6.29 |
| CCCN(CCC)S(=O)(=O)c1cccc(C(=O)Nc2ccc3c(c2)OCO3)c1 | -26.5 |
| N=C1CCC(=N)c2c1c(O)c1ccccc1c2O | 9.3 |
| COc1ccc(CCc2nnc(N)s2)cc1OC | 12.3 |
| O=C(NC1CCCCC1)C1c2ccccc2C(=O)N1Cc1ccc2c(c1)OCO2 (stereo not drawn) | 25.3 |
| CCN1CCN(Cc2nc3cc(NC(=O)COc4ccc([N+](=O)[O-])cc4)ccc3n2C)CC1 | -18.7 |
| COc1ccccc1CNC(=O)c1cccnc1 | 18 |
| Cn1c(N)c(C(=O)COC(=O)c2cccc(S(=O)(=O)N3CCCCC3)c2)c(=O)n(C)c1=O | -34.2 |

| Compound | hERG current change (%, negative = inhibition) at 10uM [%] |
| --- | --- |
| CCCCCCSc1cc(-c2nc3ccc(Cl)cn3c2NC2CCCCC2)ccc1OC.O=C(O)C(F)(F)F | 7.13 |
| Cc1nc(CN2CCN(C(=O)CCc3nnc(Cc4c[nH]c5ccccc45)o3)CC2)cs1 | 31.9 |
| COc1ccc(CCN2CC(C(=O)NCc3c(C)n[nH]c3C)CCC2=O)cc1 (stereo not drawn) | 7.61 |
| Cc1ccccc1CNC(=O)CCNS(=O)(=O)c1ccc(OC(F)(F)F)cc1 | 5.29 |
| Cc1ccc(S(=O)(=O)Cn2nnnc2C(C(C)C)N2CCN(C(=O)c3ccco3)CC2)cc1.Cl (stereo not drawn) | -34.4 |
| COc1ccc(OCCCN(C)Cc2ccccc2)cc1.O=C(O)C(=O)O | -39.3 |
| Cc1c(C(=O)N2C[C@@H](C)O[C@@H](C)C2)oc2c(F)cccc12 | 5.94 |
| O=C(Cn1cc2c(n1)CCCC2)Nc1ccccc1Br | 1.06 |
| COc1ccc(NS(=O)(=O)c2ccc(OCC(=O)N3CCN(C)CC3)cc2)cc1Cl | -7.55 |
| CC(C)(C)Nc1c2ccccc2nc2ccccc12 | -68.2 |
| O=C(COC(=O)c1ccccc1Nc1ccccc1)c1ccccc1 | 13.5 |
| COc1ccc(CCN2C(=O)c3[nH]nc(-c4ccccc4O)c3C2c2ccccc2)cc1OC (stereo not drawn) | 17.8 |
| S=C1NNC2(NN1)C1CC3CC(C1)CC2C3 | 12.7 |
| COC(=O)C1=C(C)N(CCc2ccc(OC)c(OC)c2)C(=O)C1 | 18.5 |
| CS(=O)(=O)NC1c2cccc3cccc(c23)C1N1CCOCC1 (stereo not drawn) | -11.4 |
| O=C(CN1CCN(S(=O)(=O)c2ccc(Br)cc2)CC1)c1ccc(O)c(O)c1 | -76.8 |
| O=C(N/N=C/c1ccc(Br)s1)c1ccncc1 | 2.05 |
| O=[N+]([O-])c1cccc(N(CC(O)CN2CCCCC2)S(=O)(=O)c2ccccc2)c1 (stereo not drawn) | -43.8 |
| O=C(CNC(=O)c1ccc(Br)o1)Nc1cccc(S(=O)(=O)N2CCCC2)c1 | 5.32 |
